# In PubChem BioAssay AID1347120 (National Center for Advancing Translational Sciences (NCATS), 2019):
# The whole screen tested about 390,000 compounds, of which about 930 (0.24%) were called active. This list was built around the results that the source calls inconclusive (neither active nor inactive); the mix of calls is not that of the screen. The call rests on the fitted dose curve; in most records, active means well fitted activation curve with a large enough effect; inconclusive means small, poorly fitted or top-dose-only effect; inactive means no such curve, though single readings can be large or run the other way. A potency beside an inconclusive call is a rough fit, not a confirmed value.
# Assay: qHTS for Suppressors of FUS Proteinopathy: Primary screen using FUS-linked yeast assay; further: nearly all actives have a fitted effect of over 55% in size
# Conditions: S. cerevisiae FUS-expressing, OD600, 24 h; Potency: growth rescue; series mostly up to 76.6 µM
# Source text: Several widespread neurodegenerative diseases, including Alzheimer disease, Huntington disease, Frontotemporal Lobar Degeneration (FTLD) and Amyotrophic Lateral Sclerosis (ALS), share a common pathological feature, namely accumulation of specific protein aggregates in diseased tissue. These diseases which is associated with protein misfolding (proteinopathies) have become increasingly problematic as the population ages and life expectancies are extended. Most proteinopathies are currently incurable, a situation confounded by the fact that the basis of neurodegeneration is generally poorly understood. There exists urgent and significant need to find therapeutics that can inhibit the toxicity associated with protein aggregation. A novel approach to understand the underlying mechanisms of neurodegenerative diseases has recently emerged in which the disease conditions are modeled in the yeast (Saccharomyces cerevisiae), a tractable eukaryotic organism with conserved protein quality control mechanisms. Yeast offers quick and reliable genetic manipulations and can be easily tailored to high-throughput screening (HTS).
# For this project, a yeast model of the FUS proteinopathies (a spectrum of neurodegenerative diseases that include ALS and a subtype of FTLD) was generated and employed. The cytoplasmic accumulation of the DNA/RNA-binding protein FUS (also known as TLS) is causative to both familial and sporadic forms of ALS and FTLD. This yeast model recapitulates neuronal pathology by showing severe cytotoxicity associated with cytoplasmic accumulation of FUS aggregates and a specific interaction between FUS and TDP-43, another ALS-associated protein. […] Specifically, the cellular accumulation of misfolded FUS that disrupts RNA homeostasis in both yeast and higher eukaryotes. This model was validated to be suitable for quantitative HTS (qHTS) use for finding genetic or chemical factors that restore growth. […] Identified compounds that inhibits FUS-yeast toxicity is flagged, re-acquired, and validated for further investigation and optimization.
# NIH Chemical Genomics Center [NCGC]
# NIH Molecular Libraries Probe Production Centers Network [MLPCN]
# Assay Submitter (PI): Frank Shewmaker PhD, Uniformed Services University of the Health Sciences
# Compound CP55940 was used as the positive control. Column 1 was treated with CP55940 titration from 92uM (final concentration, 1:2 dilution), while Column 2 was treated with top dose 92uM. Columns 3 and 4 were treated with DMSO only as negative control to assess background and noise signal.
# Four hundred fifty microliter of cultured yeast (in 20mL rich medium) provided by Dr. Shewmaker lab was incubated at 30C at 99% humidity for 3hr. The culture was then spun down at 4000rpm for 5min and the cell pellet was resuspended in 2mL of Sdmin Media + ALU(330) + 2.5% Raffinose. One hundred microliter of the suspension was added to 900uL of water and OD of the solution was obtained. Twenty mL of responding medium (provided by Shewmaker lab) + 2.5% raffinose was added to ensure cell density of 0.1; the solution was incubated overnight. Working cell solution (FUS-yeast in Sdmi + Sdmi + 1X ALU + 2% galactose media) was prepared (final OD at 0.005) and 3uL was dispensed in a 1536-well Aurora high based clear bottom assay plates. […] Absorbance at 600nm was then read using the PerkinElmer ViewLux plate reader.
# Potency means the concentration at half of the fitted maximal effect; tags describe the fitted curve by direction and shape.
row,SMILES,Potency
1,COC(=O)c1sc(-c2ccc(C(C)(C)C)cc2)cc1NC(=O)COCC(=O)O,"inconclusive: 28.2 µM [activator, single point]"
2,CC(c1ccccc1)N1C(=O)c2ccc(C(=O)Nc3ccccc3C(=O)O)cc2C1=O (stereo not given),"inconclusive: 7.94 µM [activator, full curve]"
3,CCCCCCc1c(C)c2ccc(OCC(=O)N[C@@H](Cc3ccccc3)C(=O)O)cc2oc1=O,"inconclusive: 31.6 µM [activator, single point]"
4,CC(C)(C)c1ccc2c(c1)OC(C(=O)N/N=C\c1ccc(-c3cccc(C(=O)O)c3)o1)CO2 (stereo not given),"inconclusive: 25.1 µM [activator, partial curve]"
5,CCCOc1ccc(C2C(C(=O)c3cc4ccccc4o3)=C(O)C(=O)N2c2cc(C)on2)cc1 (stereo not given),"inconclusive: 15.8 µM [activator, partial curve, poor fit]"
